Hit rate of the full screen: of about 310,000 compounds, about 14,000 (4.5%) showed an effect of 50% or more. Effects have a minus sign here. The list shows a part of the results.
target: human ether-à-go-go-related gene (hERG) potassium channel (human, UniProt Q12809); assay: primary screen, population patch clamp on CHO cells stably expressing hERG
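Note: peak tail current of the secondary pulse compared with the same well before compound.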

Chain of human ether-à-go-go-related gene (hERG) potassium channel (Q12809 whole entry, looked up): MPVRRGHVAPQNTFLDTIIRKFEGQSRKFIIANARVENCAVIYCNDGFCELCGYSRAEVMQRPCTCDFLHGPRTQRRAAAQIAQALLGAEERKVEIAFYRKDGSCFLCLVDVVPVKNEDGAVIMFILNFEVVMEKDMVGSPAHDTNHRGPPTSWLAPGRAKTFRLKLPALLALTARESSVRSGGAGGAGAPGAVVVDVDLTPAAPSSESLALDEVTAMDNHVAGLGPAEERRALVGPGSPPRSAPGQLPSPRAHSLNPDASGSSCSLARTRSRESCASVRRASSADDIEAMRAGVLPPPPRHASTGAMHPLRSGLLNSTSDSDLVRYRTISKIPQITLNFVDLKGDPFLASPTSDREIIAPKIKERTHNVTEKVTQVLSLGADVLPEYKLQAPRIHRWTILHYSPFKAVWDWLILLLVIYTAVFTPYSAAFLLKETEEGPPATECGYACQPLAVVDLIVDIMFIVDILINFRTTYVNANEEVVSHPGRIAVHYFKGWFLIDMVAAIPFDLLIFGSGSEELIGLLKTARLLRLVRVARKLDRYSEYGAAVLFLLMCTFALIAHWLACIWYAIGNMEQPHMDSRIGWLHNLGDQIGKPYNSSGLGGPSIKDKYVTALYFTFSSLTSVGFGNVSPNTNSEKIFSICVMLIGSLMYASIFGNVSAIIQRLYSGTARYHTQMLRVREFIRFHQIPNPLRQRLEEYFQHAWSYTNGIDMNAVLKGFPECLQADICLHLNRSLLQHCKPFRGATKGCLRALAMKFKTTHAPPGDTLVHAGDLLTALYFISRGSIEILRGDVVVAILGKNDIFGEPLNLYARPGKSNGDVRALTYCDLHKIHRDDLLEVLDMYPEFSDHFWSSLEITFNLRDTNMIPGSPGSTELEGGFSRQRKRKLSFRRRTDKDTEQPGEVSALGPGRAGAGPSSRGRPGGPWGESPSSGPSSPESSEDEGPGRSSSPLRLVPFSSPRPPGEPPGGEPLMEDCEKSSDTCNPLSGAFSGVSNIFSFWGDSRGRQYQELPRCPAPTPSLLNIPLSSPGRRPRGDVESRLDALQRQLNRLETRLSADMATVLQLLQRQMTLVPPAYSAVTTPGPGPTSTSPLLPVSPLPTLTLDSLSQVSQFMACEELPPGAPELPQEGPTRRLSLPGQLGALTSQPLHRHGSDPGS

Q: Which “hERG current change (%, negative = inhibition) at 10uM” value does the source give for `N#Cc1nc(-c2ccc(OCc3ccccc3)cc2)oc1N1CCOCC1` here?
A: 10.4%

Q: With `Cc1cc(OCC(=O)NCc2ccccn2)c2c(C)c(C)c(=O)oc2c1` as the compound, how does the “hERG current change (%, negative = inhibition) at 10uM” value read?
A: -11.2%

Q: Which “hERG current change (%, negative = inhibition) at 10uM” value does the source give for `S=C(NCC(c1cccnc1)N1CCOCC1)NC1CCCCC1` (stereo not drawn) here?
A: 3.84%

Q: With `Cc1cc2nccc(-c3ccc(Cl)cc3Cl)n2n1` as the compound, how does the “hERG current change (%, negative = inhibition) at 10uM” value read?
A: 0.931%

Q: With `CCN(Cc1cc2ccccc2[nH]c1=O)C(=O)c1cccc([N+](=O)[O-])c1` as the compound, how does the “hERG current change (%, negative = inhibition) at 10uM” value read?
A: -21.8%

Q: `COc1ccccc1N1CCN(C2CCCN(C(=O)CN3CCCC3=O)C2)CC1` (stereo not drawn) was tested. Which “hERG current change (%, negative = inhibition) at 10uM” value did it give?
A: 15.4%

Q: `CN1CCCc2cc3c(C(F)(F)F)cc(=O)oc3nc21` was tested. Which “hERG current change (%, negative = inhibition) at 10uM” value did it give?
A: 12.9%

Q: `CC1(C)CC(=O)C(N=Nc2cccc([N+](=O)[O-])c2)=C(O)C1` was tested. Which “hERG current change (%, negative = inhibition) at 10uM” value did it give?
A: 3.25%

Q: For `CCOC(=O)c1sc(NC(=O)CSc2nnnn2-c2ccc(C)cc2C)nc1C`, which “hERG current change (%, negative = inhibition) at 10uM” value is on record?
A: 23.1%

Q: `Cn1cnc2cc(NCc3ccccc3Cl)ccc21` was tested. Which “hERG current change (%, negative = inhibition) at 10uM” value did it give?
A: -35%

Q: For `O=C(Cc1cccc2ccccc12)NN1C(=O)CSC1=S`, which “hERG current change (%, negative = inhibition) at 10uM” value is on record?
A: 16.2%

Q: Which “hERG current change (%, negative = inhibition) at 10uM” value does the source give for `CSc1ccccc1NC(=O)CN(C)CC(=O)Nc1ccc(Cl)cc1[N+](=O)[O-]` here?
A: -31.6%

Q: How did the “hERG current change (%, negative = inhibition) at 10uM” value turn out when `Cc1ccc(S(=O)(=O)C(C#N)c2nc3ccccc3nc2N2CCN(C)CC2)cc1` (stereo not drawn) was run?
A: -13.1%

Q: `CCC(=O)Nc1ccc(-n2nnnc2SCC(=O)NNC(=O)c2ccco2)cc1` was tested. Which “hERG current change (%, negative = inhibition) at 10uM” value did it give?
A: 2%

Q: For `CCOC(=O)C1=C(C)N(c2ccccc2)C(=O)/C1=C\c1ccco1`, which “hERG current change (%, negative = inhibition) at 10uM” value is on record?
A: 3.26%

Q: Which “hERG current change (%, negative = inhibition) at 10uM” value does the source give for `COc1ccc(OCCn2cc(/C=N/NC(=O)c3ccncc3)c3ccccc32)cc1` here?
A: -15.3%

Q: `CCCc1ccc(S(=O)(=O)Nc2ccc(C)c(NS(C)(=O)=O)c2)cc1` was tested. Which “hERG current change (%, negative = inhibition) at 10uM” value did it give?
A: -6.71%

Q: For `CCN(CC(=O)N1CCN(c2ccccc2)CC1)S(=O)(=O)c1ccc(C)cc1`, which “hERG current change (%, negative = inhibition) at 10uM” value is on record?
A: -12.8%

Q: Which “hERG current change (%, negative = inhibition) at 10uM” value does the source give for `CN(C)c1nc2c(c(=O)[nH]c(=O)n2C)n1Cc1ccccc1Br` here?
A: -0.479%

Q: For `CCCCn1c(SCC(=O)Nc2nnc(C(C)C)s2)nc2c1c(=O)n(C)c(=O)n2C`, which “hERG current change (%, negative = inhibition) at 10uM” value is on record?
A: -0.729%

Q: Which “hERG current change (%, negative = inhibition) at 10uM” value does the source give for `Cc1cc(Nc2ccccc2)n(CCC#N)n1` here?
A: 9.52%

Q: How did the “hERG current change (%, negative = inhibition) at 10uM” value turn out when `CC(Oc1ccc(Cl)cc1Cl)C(=O)N(C)c1ccccc1` (stereo not drawn) was run?
A: -11.4%

Q: For `COc1ccc(Cl)cc1NC(=O)C/C(C)=N/NC(=O)CC#N`, which “hERG current change (%, negative = inhibition) at 10uM” value is on record?
A: -1.42%

Q: Which “hERG current change (%, negative = inhibition) at 10uM” value does the source give for `COc1ccc(-c2cc(C(=O)c3c(N)n(C)c(=O)n(C)c3=O)c3ccccc3n2)cc1OC` here?
A: 3.71%
